The results in this text go back to PMC12136788.

To fix the notation:
T1: UNK ZnF1-6 (called full-length) (human, UniProt Q9C0B0 30-357)
T1 sequence: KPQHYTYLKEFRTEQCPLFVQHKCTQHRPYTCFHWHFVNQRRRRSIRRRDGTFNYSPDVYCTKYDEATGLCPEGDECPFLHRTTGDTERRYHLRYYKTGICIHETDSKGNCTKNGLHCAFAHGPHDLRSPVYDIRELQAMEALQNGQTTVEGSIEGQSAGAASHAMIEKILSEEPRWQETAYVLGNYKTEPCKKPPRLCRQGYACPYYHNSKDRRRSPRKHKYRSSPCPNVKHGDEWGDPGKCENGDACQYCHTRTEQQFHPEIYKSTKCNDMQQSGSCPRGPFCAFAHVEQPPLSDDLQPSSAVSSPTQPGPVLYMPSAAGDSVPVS

B1: chr2:121339258:121339359:-|3pUTR|ENSG00000074054|unk|total|mutant (ssRNA)
RNA: GGGAGUUCUACAGUCCGACGAUCUUUUGAGAUUAAUUCUAAUAACGUAUUUGCUAUUGCAGUGCAGAGCCCACUGCAACUGCCCGGACUGAAAGCAGAGGCUGGGUGCCAGAGCACGUGAUUCUUAACAUCAUUUCCACAGACCAACAGAGGAUUGAGCAUCA
B2: ENSG00000136731:stop:overlap|stop_codon|ENSG00000136731|stop_codon|NA|stop_codon (ssRNA)
RNA: GGGAGUUCUACAGUCCGACGAUCCCAUUACAACCUCUCUUACAACAAAAUGGUUUUCCACUCCAUUGUUGUUAGAAGCCAGAUAGCAGCUGAUGAACCUCCACCAGAAGGAUGUAAUUCGUUUUUUUCAGUGCAUGGAAAGAACAACAGAGGAUUGAGCAUCA
B3: ENSG00000124766:be:win_3201|3pUTR|ENSG00000124766|bound_else_gene|NA|bound_elsewhere_windowed (ssRNA)
RNA: GGGAGUUCUACAGUCCGACGAUCUAAAUCGCUGUUUGGAUUUCCUGAUUUUAUAACAGGGCGGCUGGUUAAUAUCUCACACAGUUUAAAAAAUCAGCCCCUAAUUUCUCCAUGUUUACACUUCAAUCUGCAGGCUUCUUAAAGCAACAGAGGAUUGAGCAUCA
B4: chr6:73641827:73641929:-|CDS|ENSG00000119899|unk|total|mutant (ssRNA)
RNA: GGGAGUUCUACAGUCCGACGAUCGAGAAAAGAGCUGCUCUGUGAAGGUCUUAAAGGAUUGUUUUAUUCUUUUCUGAUUUUUGCCGGGUAAGAAGUACCAAUGGGAUGCAGAAACUCAAGGAUGGAUUCUCGGUUCCUUUUUUUCAACAGAGGAUUGAGCAUCA
B5: chr2:128193554:128193655:+|3pUTR|ENSG00000136731|msi1|FALSE|unique (ssRNA)
RNA: GGGAGUUCUACAGUCCGACGAUCCCUUGUCAAGGCUCUGCCUGAAUGAGUUUUCAUCUGAUUGUGGGGACCAAGUCCCUGAGUAGAGGGCCAAGAGCUAGGGACAGGGGGAAGAGACUGGCCCAGGUGGUAGGGAGGAAAGAACAACAGAGGAUUGAGCAUCA
B6: chr8:23842113:23842214:-|3pUTR|ENSG00000159167|msi1|FALSE|unique (ssRNA)
RNA: GGGAGUUCUACAGUCCGACGAUCACUUUAGACAUUUUUGUGCCAUUAUAUUUGCAUUAUGUAUUUAUAAUUUAAAUGAUAUUUAGGUUUUUGGCUGAGUACUGGAAUAAACAGUGAGCAUAUCUGGUAUAUGUCAUUAUUUAUCAACAGAGGAUUGAGCAUCA
B7: chr5:136063637:136063821:+|3pUTR|ENSG00000120708|msi1|total|mutant (ssRNA)
RNA: GGGAGUUCUACAGUCCGACGAUCUGUCAAAUGUGUCUCACAUCUACACGUGGCUUGGAGGCUUUUAUGGGGCCCUGUCCAGGCCGAAAAGAAAUGGUAUGCCGAGCUCCGAUUUCCCUAUUGUGACAGAGCCAUGGUGUGUUUCAACAGAGGAUUGAGCAUCA
B8: chr12:62383855:62383964:+|CDS|ENSG00000135655|unk|FALSE|unique (ssRNA)
RNA: GGGAGUUCUACAGUCCGACGAUCGGUAGGACGUUUUGCACCUCAGUUCUCUGGAUAUCAGCAGCAAGACUGUCAAGAACUGUUAGCUUUCCUAUUAGAUGGAUUACAUGAGGAUUUGAAUAGAAUUAGGAAAAAACCAUAUAUCAACAGAGGAUUGAGCAUCA
B9: chrX:47636291:47636398:-|3pUTR|ENSG00000126767|unk|total|mutant (ssRNA)
RNA: GGGAGUUCUACAGUCCGACGAUCGCCUGCCCUUGGGGAGAUGAGGGAGCCCUGUCUGCGUUUUUGGAUGUGAGCCGAAGAGUCCGUUUGUUUUGUUUUAUUAUUCCUGGCCAUACUCAGGGGUCCAGGAAGAAUUUGUACCAUCAACAGAGGAUUGAGCAUCA
B10: chr1:151291320:151291421:+|3pUTR|ENSG00000143373|unk|total|mutant (ssRNA)
RNA: GGGAGUUCUACAGUCCGACGAUCAAUAUUUUGUUAAUUCCUGUCUCUCCAACCUGAAGAAGAAGAGCAUUUGAGGAUUAUUCCCGUUAUUUGCAACCUCCCUUUGGGUUUGGCCCUGGAGUCCCCGCCGAGUGGACCCUCCAUCAACAGAGGAUUGAGCAUCA
B11: chr19:32875924:32879378:-|three_prime_utr|ENSG00000121289|control|control|control (ssRNA)
RNA: GGGAGUUCUACAGUCCGACGAUCACCUGCUGGACGGCUGCGAUGUCUGCUCCUAUGACCUGAAGUCUCAUGCCCCCACCUGCUAGAAUCUGCGGGAGCCCGUGGUGUAGCCUCCUCUGGCCUGAAAGGUCUGCCUCACACAGGCAACAGAGGAUUGAGCAUCA
B12: chr11:123805410:123806349:-|CDS|ENSG00000196099|control|control|control (ssRNA)
RNA: GGGAGUUCUACAGUCCGACGAUCGUGGGAGCCUUCCUGUCUGUGUUGUUUCCAACCAUUGUAGUGACAAGGCUACCUUACUGUAGGAAAGAAAUUAAUCAUUUCUUCUGUGACAUUGCCCCUCUUCUUCAGGUGGCCUGUAUACAACAGAGGAUUGAGCAUCA
B13: chr11:118396625:118396726:+|3pUTR|ENSG00000110344|msi1|total|mutant (ssRNA)
RNA: GGGAGUUCUACAGUCCGACGAUCAACUUGACAAUGCUCCCCUGGCUUGCAGGAAAUUAUACUUAUUACCGCAUCACCAAGUUCCGAAAUCAUCACUAAUUUUCACCCUCUGUUGUCUCUUCAUAUUCUUCUUCCUUUUCCUAACAACAGAGGAUUGAGCAUCA
B14: chr2:27433287:27433389:+|CDS|ENSG00000115216|unk|total|mutant (ssRNA)
RNA: GGGAGUUCUACAGUCCGACGAUCUUCCAGCAUGUCGGAGGGGGAGUCCCAGACAGUACUCCGCAGUGGCUCAGACCCAAAGGCCGAAUCCUCAUCUUCAGCUCCUGGCCUGACAUCAGUGUCACCUCCUGUGACCUCCACAACCAACAGAGGAUUGAGCAUCA

Some of the results follow.

The assay deals with T1, UNK ZnF1-6 (called full-length). The experiment in a line: nsRBNS (natural sequence RNA bind-n-seq); RBNS binding buffer (assumed for nsRBNS): 25 mM Tris pH 7.5, 150 mM KCl, 3 mM MgCl2, 0.01% Triton X-100, 500 ug/ml BSA, 20 U/ml SUPERase-In, 4 C; UNK is unkempt and MSI1 is Musashi-1; names of the RNAs are library labels; protein concentration not given here; high values mean tight binding.
With B1, the binding signal came to 0.852 enrichment R.

The molecule B2 displayed a binding signal of 0.651 enrichment R.

B3 yielded a binding signal of 0.53 enrichment R.

B4 came in with a binding signal of 0.386 enrichment R.

As for B5, the binding signal stood at 0.836 enrichment R.

The molecule B6 yielded a binding signal of 3.25 enrichment R.

B7 gave a binding signal of 0.676 enrichment R.

For the molecule B8, the binding signal was determined as 5.69 enrichment R.

B9 showed a binding signal of 0.892 enrichment R.

B10 yielded a binding signal of 0.725 enrichment R.

Molecule B11 came in with a binding signal of 0.849 enrichment R.

Consider B12, for which the binding signal is 0.594 enrichment R.

In turn, B13 registered a binding signal of 0.979 enrichment R.

B14 gave a binding signal of 0.734 enrichment R.
